Test results reported in the supplement of paper PMC9174493.
The list shows a part of the results. Single values of this set are uncertain. Values with irradiation are relative to irradiated vehicle.

Columns and labels:
[1] = tested on: A549-Dual; test: NF-kB reporter (SEAP) activity, viability-corrected, relative to vehicle (fold change vs vehicle); higher = more activation of STING-IRF / NF-kB immune response reporter
[2] = tested on: A549-Dual; test: ISRE reporter (Lucia luciferase) activity, viability-corrected, relative to vehicle (fold change vs vehicle); higher = more activation of STING-IRF / NF-kB immune response reporter
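Wherever NF-kB reporter (SEAP) activity, viability-corrected, relative to vehicle is given: viability correction based on the alamar blue assay, with concentrations leaving 10% survival or less dropped.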

| Structure (SMILES) | NF-kB reporter ([1]; 10 µM, irradiation: 8 Gy/4 fr) | NF-kB reporter ([1]; 10 µM, irradiation: none) | ISRE reporter ([2]; 10 µM, irradiation: 8 Gy/4 fr) | ISRE reporter ([2]; 10 µM, irradiation: none) | NF-kB reporter ([1]; 0.1 µM, irradiation: 8 Gy/4 fr) | NF-kB reporter ([1]; 0.1 µM, irradiation: none) | NF-kB reporter ([1]; 0.3 µM, irradiation: 8 Gy/4 fr) | NF-kB reporter ([1]; 0.3 µM, irradiation: none) | NF-kB reporter ([1]; 1 µM, irradiation: 8 Gy/4 fr) | NF-kB reporter ([1]; 1 µM, irradiation: none) | NF-kB reporter ([1]; 3 µM, irradiation: 8 Gy/4 fr) | NF-kB reporter ([1]; 3 µM, irradiation: none) | ISRE reporter ([2]; 0.1 µM, irradiation: 8 Gy/4 fr) | ISRE reporter ([2]; 0.1 µM, irradiation: none) | ISRE reporter ([2]; 0.3 µM, irradiation: 8 Gy/4 fr) | ISRE reporter ([2]; 0.3 µM, irradiation: none) | ISRE reporter ([2]; 1 µM, irradiation: 8 Gy/4 fr) | ISRE reporter ([2]; 1 µM, irradiation: none) | ISRE reporter ([2]; 3 µM, irradiation: 8 Gy/4 fr) | ISRE reporter ([2]; 3 µM, irradiation: none) |
| --- | --- | --- | --- | --- | --- | --- | --- | --- | --- | --- | --- | --- | --- | --- | --- | --- | --- | --- | --- | --- |
| O=C(O)c1ccccc1C(=O)O [Phthalic acid] | 1.21 | 0.725 | 1.17 | 0.47 | – | – | – | – | – | – | – | – | – | – | – | – | – | – | – | – |
| CN1C2=CC(=O)/C(=N\NC(N)=O)C=C2CC1S(=O)(=O)[O-].[Na+] (stereo unspecified) [Carbazochrome sodium sulfonate (AC-17)] | 1.1 | 0.997 | 1.17 | 0.941 | 1.23 | 1.27 | 1.04 | 1.43 | 1.11 | 1.61 | 1.15 | 1.26 | 1.09 | 1.23 | 1.17 | 1.14 | 1.05 | 1.27 | 1.19 | 0.847 |
| CCCCCCCCc1ccc(CCC(N)(CO)CO)cc1 [Fingolimod] | – | – | – | – | 0.687 | 0.48 | 0.745 | 0.467 | 0.659 | 0.633 | 0.796 | 0.716 | 0.613 | 0.546 | 0.616 | 0.6 | 0.608 | 0.763 | 0.832 | 0.706 |
| Cn1c(=O)c2c(ncn2CC2OCCO2)n(C)c1=O [Doxofylline] | 0.573 | 0.605 | 0.704 | 0.611 | – | – | – | – | – | – | – | – | – | – | – | – | – | – | – | – |
| COc1cccc2c1C(=O)c1c(O)c3c(c(O)c1C2=O)CC(O)(C(=O)CO)CC3OC1CC(N)C(OC2CCCCO2)C(C)O1 (stereo unspecified) [Pirarubicin] | – | 3.84 | – | 1.29 | 0.935 | 1.42 | 0.954 | 1.52 | 0.917 | 1.84 | – | 11.8 | 0.565 | 2.6 | 0.668 | 2.79 | 0.598 | 4.01 | – | 2.8 |
| CNCCc1ccccn1 [Betahistine] | 0.595 | 0.916 | 0.696 | 0.912 | – | – | – | – | – | – | – | – | – | – | – | – | – | – | – | – |
| CCN(CC)C(=O)C1(c2ccccc2)CC1CN.Cl (stereo unspecified) [Levomilnacipran Hydrochloride] | 0.893 | 1.36 | 0.894 | 0.967 | – | – | – | – | – | – | – | – | – | – | – | – | – | – | – | – |
| OCC1OC(OCC2OC(O)C(O)C(OC3OC(CO)C(O)C(OC4OC(CO)C(O)C(OC5OC(COC6OC(CO)C(O)C(O)C6O)C(O)C(OC6OC(CO)C(O)C(O)C6O)C5O)C4O)C3O)C2O)C(O)C(O)C1O (stereo unspecified) [Lentinan] | 1.72 | 0.537 | 1.55 | 0.906 | 1.24 | 2.33 | 1.32 | 1.96 | 1.79 | 1.34 | 2.15 | 1.36 | 1.17 | 2 | 1.16 | 1.5 | 1.47 | 1.21 | 1.19 | 1.17 |
| CCN(CC)C(=O)c1cccnc1 [Nikethamide] | 1.39 | 0.673 | 1.39 | 0.657 | – | – | – | – | – | – | – | – | – | – | – | – | – | – | – | – |
| O=C(/C=C/c1cccc(S(=O)(=O)Nc2ccccc2)c1)NO [Belinostat (PXD101)] | – | 5 | – | 1.48 | 0.905 | 1.15 | 0.735 | 1.16 | 0.522 | 1.22 | – | 3.17 | 1.09 | 1.51 | 0.602 | 1.44 | 0.111 | 0.53 | – | 0.881 |
| COc1cnc(NS(=O)(=O)c2ccc(N)cc2)nc1 [Sulfameter] | 0.736 | 0.869 | 0.763 | 0.738 | – | – | – | – | – | – | – | – | – | – | – | – | – | – | – | – |
| COc1ccc(Cc2cnc(N)nc2N)cc1OC [Diaveridine] | 0.711 | 1.31 | 0.677 | 1.1 | – | – | – | – | – | – | – | – | – | – | – | – | – | – | – | – |
| N=C(N)c1ccc(OCCCCCOc2ccc(C(=N)N)cc2)cc1.O=S(=O)(O)CCO.O=S(=O)(O)CCO [Pentamidine isethionate] | 0.312 | 0.542 | 0.177 | 0.639 | – | – | – | – | – | – | – | – | – | – | – | – | – | – | – | – |
| CCC1(O)C(=O)OCc2c1cc1n(c2=O)Cc2cc3cc(O)ccc3nc2-1 [(S)-10-Hydroxycamptothecin] | – | – | – | – | 1.26 | 3.12 | 1.43 | 6.73 | 3.62 | 6.58 | – | – | 1.4 | 10.5 | 2.07 | 19.2 | 2.4 | 16.6 | – | – |
| Cl.Cn1cc(C(=O)C2CCc3nc[nH]c3C2)c2ccccc21 (stereo unspecified) [Ramosetron Hydrochloride] | 0.784 | 0.964 | 0.862 | 0.91 | – | – | – | – | – | – | – | – | – | – | – | – | – | – | – | – |
| O=c1ccc2ccc(OCCCCN3CCN(c4cccc5sccc45)CC3)cc2[nH]1 [Brexpiprazole] | 0.599 | 0.98 | 0.591 | 0.931 | – | – | – | – | – | – | – | – | – | – | – | – | – | – | – | – |
| COc1cc(C2Oc3ccc(C4Oc5cc(O)cc(O)c5C(=O)C4O)cc3OC2CO)ccc1O (stereo unspecified) [Silymarin] | 1.28 | 1 | 1.12 | 0.882 | 0.915 | 1.68 | 1.05 | 1.79 | 1.63 | 1.34 | 1.69 | 1.34 | 1.11 | 1.42 | 1.03 | 1.23 | 1.05 | 1.2 | 1.03 | 1.22 |
| CCC1(O)C(=O)OCc2c1cc1n(c2=O)Cc2cc3c(CN(C)C)c(O)ccc3nc2-1.Cl (stereo unspecified) [Topotecan HCl] | – | 5.19 | – | 2.56 | 1.24 | 1.82 | 1.51 | 3.45 | 1.22 | 3.84 | – | 5.54 | 1.16 | 5.43 | 1.63 | 9.13 | 1.52 | 12.7 | – | 5.07 |
| COc1cccc2c1C(=O)c1c(O)c3c(c(O)c1C2=O)CC(O)(C(=O)CO)CC3OC1CC(N)C(O)C(C)O1.Cl (stereo unspecified) [Epirubicin HCl] | 4.16 | 1.47 | 0.567 | 0.758 | 0.81 | 1.69 | 1.32 | 2.46 | 1.64 | 7.45 | – | 7.26 | 0.446 | 3.39 | 0.965 | 5.82 | 0.907 | 4.02 | – | 2.04 |
| CC(=O)Nc1c(I)c(NC(C)=O)c(I)c(C(=O)O)c1I [Diatrizoic acid] | 0.946 | 0.759 | 0.828 | 0.412 | – | – | – | – | – | – | – | – | – | – | – | – | – | – | – | – |
| CC1(C)CCCC(C)(C2CCC3(C)C2C(O)CC2C4(C)CCC(O)C(C)(C)C4C(O)CC23C)O1 (stereo unspecified) [Panaxatriol] | 0.526 | 0.881 | 0.488 | 0.573 | – | – | – | – | – | – | – | – | – | – | – | – | – | – | – | – |
| CCC1(O)C(=O)OCc2c1cc1n(c2=O)Cc2cc3c(CN(C)C)c(O)ccc3nc2-1 (stereo unspecified) [Topotecan] | 2.71 | 3.31 | 1.55 | 9.6 | 1.17 | 1.63 | 1.36 | 2.79 | 1.48 | 3.85 | – | 4.2 | 1.3 | 7.28 | 1.9 | 8 | 1.49 | 10.8 | – | 11.1 |
| C/C=C(/C)C(=O)OC1C(OC(C)=O)C2(CO)C(O)CC3(C)C(=CCC4C5(C)CCC(OC6OC(C(=O)O)C(OC7OC(CO)C(O)C(O)C7O)C(O)C6OC6OC(CO)C(O)C(O)C6O)C(C)(CO)C5CCC43C)C2CC1(C)C (stereo unspecified) [Escin] | – | – | – | – | 1.05 | 1.15 | 1.13 | 0.775 | 1.17 | 0.984 | 1.13 | 0.818 | 1.1 | 0.846 | 0.964 | 0.732 | 0.707 | 0.664 | 0.79 | 0.916 |
